Laboratory results: the supplement of paper PMC4967469
IC50 is the fitted dose that halves viability relative to control wells, and lower means more sensitive; fits outside the tested doses are given as limits. AUC is the area under the same curve over the 256-fold range up to the top dose, as a fraction; values near 1 show little effect. For some of these results: Where the top dose is marked as inferred, it was calculated from the reported fits.

How the values were obtained:
Experiment in all cases: Viability of human cancer cell lines after 72 h of drug (GDSC screen)
[1] = compound: CN(C)C/C=C/C(=O)Nc1ccc(C(=O)Nc2cccc(Nc3nccc(-c4cccnc4)n3)c2)cc1 [ZG-10]; details: top dose 10 µM; top dose inferred
Description: (§1)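 Human cancer cell lines in 384-well plates, medium with 10% serum, drug for 72 h over a 256-fold dose range (nine 2-fold or five 4-fold steps up to the top dose). Adherent lines were fixed and stained with the nucleic acid dye Syto60, suspension lines read with resazurin; signal relative to control wells, capped at 0 and 100%. One two-parameter sigmoid per drug and line, fitted in a mixed model over all curves with the slope shared within a line.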

[2] = compound: Cn1nnc2c(C(N)=O)ncn2c1=O [Temozolomide]; details: top dose 30 µM
Description: as §1

[3] = compound: CN1CCc2c(c3ccccc3n2Cc2ccc(C(=O)NO)cc2)C1 [Tubastatin A]; details: top dose 20 µM
Description: as §1

[4] = compound: COc1cc2c(Oc3ccc(NC(=O)C4(C(=O)Nc5ccc(F)cc5)CC4)cc3F)ccnc2cc1OCCCN1CCOCC1 [XL-880]; details: top dose 5.12 µM; top dose inferred
Description: as §1

[5] = compound: O=C(NOCC1CC1)c1ccc(F)c(F)c1Nc1ccc(I)cc1Cl [CI-1040]; details: top dose 10 µM; top dose inferred
Description: as §1

[6] = compound: Oc1ccc2ccccc2c1SSc1c(O)ccc2ccccc12 [IPA-3]; details: top dose 32 µM; top dose inferred
Description: as §1

Cell Line	AUC [1]	IC50 [1]	AUC [2]	IC50 [2]	AUC [3]	IC50 [3]	AUC [4]	IC50 [4]	AUC [5]	IC50 [5]	AUC [6]	IC50 [6]
H2810 (mesothelioma, adherent)	0.901	> 10 µM	0.984	> 30 µM								
NCI-H2405 (lung adenocarcinoma, adherent)			0.976	> 30 µM	0.986	> 20 µM	0.773	2.21 µM	0.944	> 10 µM	0.697	7.63 µM
MDA-MB-436 (breast, adherent)			0.964	> 30 µM	0.97	> 20 µM	0.875	> 5.12 µM	0.879	> 10 µM	0.97	> 32 µM
NCI-H2227 (small cell lung carcinoma, semi-adherent)			0.975	> 30 µM	0.955	> 20 µM	0.46	0.246 µM	0.949	> 10 µM	0.903	> 32 µM
MIA-PaCa-2 (pancreas, adherent)			0.981	> 30 µM	0.983	> 20 µM	0.836	3.88 µM	0.556	0.906 µM	0.814	19.5 µM
SW13 (adrenal gland, adherent)			0.986	> 30 µM	0.988	> 20 µM	0.866	4.68 µM	0.882	> 10 µM	0.875	> 32 µM
C3A (liver, adherent)			0.958	> 30 µM	0.988	> 20 µM	0.871	> 5.12 µM	0.93	> 10 µM	0.876	> 32 µM
SW1990 (pancreas, adherent)			0.964	> 30 µM	0.982	> 20 µM	0.864	> 5.12 µM	0.855	> 10 µM	0.835	26.5 µM
AN3-CA (endometrium, adherent)			0.965	> 30 µM	0.983	> 20 µM	0.575	0.524 µM	0.82	6.44 µM	0.714	8.57 µM
MFE-319 (endometrium, adherent)	0.754	3.26 µM	0.988	> 30 µM	0.987	> 20 µM	0.821	2.86 µM			0.872	28.9 µM
CAL-85-1 (breast, adherent)			0.962	> 30 µM	0.958	> 20 µM	0.84	5.06 µM	0.884	> 10 µM	0.686	7.76 µM
JHH-7 (liver, adherent)			0.981	> 30 µM	0.989	> 20 µM	0.659	0.856 µM	0.895	> 10 µM	0.823	17.3 µM
DU-145 (prostate, adherent)			0.98	> 30 µM	0.959	> 20 µM	0.729	1.56 µM	0.878	> 10 µM	0.704	8.09 µM
CAL-39 (cervix, adherent)			0.983	> 30 µM	0.97	> 20 µM	0.594	0.585 µM	0.672	1.93 µM	0.863	29.4 µM
NCI-H838 (lung adenocarcinoma, adherent)			0.985	> 30 µM	0.962	> 20 µM	0.696	1.16 µM	0.891	> 10 µM	0.972	> 32 µM
H2591 (mesothelioma, adherent)	0.802	6.77 µM	0.98	> 30 µM	0.917	> 20 µM	0.7	1.4 µM			0.904	> 32 µM
NCI-H647 (non-small cell lung carcinoma, adherent)			0.567	2.88 µM	0.941	> 20 µM	0.549	0.439 µM	0.895	> 10 µM	0.984	> 32 µM
HOP-92 (large cell lung carcinoma, adherent)			0.967	> 30 µM	0.982	> 20 µM	0.877	> 5.12 µM	0.756	3.92 µM	0.901	> 32 µM
OCUM-1 (stomach, adherent)			0.985	> 30 µM	0.985	> 20 µM	0.894	> 5.12 µM	0.373	0.267 µM	0.975	> 32 µM
HO-1-u-1 (head and neck, adherent)			0.978	> 30 µM	0.962	> 20 µM	0.751	1.63 µM	0.834	6.12 µM	0.983	> 32 µM
NCI-H1435 (lung adenocarcinoma, semi-adherent)			0.99	> 30 µM	0.992	> 20 µM	0.814	2.42 µM	0.974	> 10 µM	0.993	> 32 µM
GP5d (large intestine, adherent)	0.778	3.62 µM	0.99	> 30 µM	0.991	> 20 µM	0.711	1.17 µM			0.924	> 32 µM
Detroit562 (head and neck, adherent)			0.987	> 30 µM	0.987	> 20 µM	0.765	1.8 µM	0.895	> 10 µM	0.988	> 32 µM
CAL-120 (breast, adherent)			0.96	> 30 µM	0.939	> 20 µM	0.689	1.28 µM	0.904	> 10 µM	0.977	> 32 µM
HuO-3N1 (osteosarcoma, adherent)			0.98	> 30 µM	0.962	> 20 µM	0.747	2.11 µM	0.977	> 10 µM	0.958	> 32 µM
